The source of these data is the supplement of paper PMC12217912.

The list shows a part of the results. Sequences were assembled here from the parent chain. Inactive controls read about 0.05.

B1: TEV protease; numbered along this chain (parent)
chain: MGESLFKGPRDYNPISSSICHLTNESDGHTTSLYGIGFGPFIITNKHLFRRNNGTLVVQSLHGVFKVKDTTTLQQHLVDGRDMIIIRMPKDFPPFPQKLKFREPQREERICLVTTNFQTKSMSSMVSDTSCTFPSGDGIFWKHWIQTKDGQCGSPLVSTRDGFIVGIHSASNFTNTNNYFTSVPKNFMELLTNQEAQQWVSGWRLNADSVLWGGHKVFMVKPEEPFQPVKEATQL

Variants of B1 are the subject of the test. Put plainly: raw area under fraction-flipped curve 0-4 h after induction (AUC4h, not background-subtracted), DNA-recorder readout of cleavage of the substrate (dimensionless); higher = more cleavage of the substrate by the protease variant. Particulars: temperature: 34 °C; time window: 0-4 h after rhamnose induction.
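Also: Bxb1 expression induced with 0.2% (w/v) L-rhamnose at OD600 near 0.5, cultures sampled hourly, flipped fraction per protease–substrate barcode pair counted by paired-end Illumina sequencing.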

As for MGESLFKGPRDYNPISSSICHLTNESDGHTTSLYGIGFGPFIITNKHLFRRNNGTLVVQSLHGVFKVKDTTTLQQHLVDGRDMIIIRMPKDFPPFPQKLKFREPQREERICLVTTNFQTKSMSSMVSDTSCTFPSGDGIFWKHWIQTKDGQCGKPLVSTRDGFIVGIHSASNFTNTNNYFTSVPKNFMELLTNQEAQQWVSGWRLNADSVLWGGHKVFMVKPEEPFQPVKEATQL [S154K], the “area with substrate ENLYFQC” value stood at 0.089, the “area with substrate ENLYFQE” value turned out to be 0.0311, the “area with substrate ENLYFQG” value worked out at 0.0955 and the “area with substrate ENLYFQK” value was 0.0758. Also, the “area with substrate ENLYFQL” value was 0.043, the “area with substrate ENLYFQM” value was determined as 0.0656, the “area with substrate ENLYFQN” value amounted to 0.0747 and the “area with substrate ENLYFQP” value is 0.0467. Further, the “area with substrate ENLYFQR” value was 0.0616, the “area with substrate ENLYFQS” value is 0.0892, the “area with substrate ENLYFQT” value turned out to be 0.0432 and the “area with substrate ENLYFQW” value was 0.0669. Moreover, the “area with substrate ENLYFQY” value came out at 0.0799.

With MGESLFKGPRDYNPISSSICHLTNESDGHTTSLYGIGFGPFIITNKHLFRRNNGTLVVQSLHGVFKVKDTTTLQQHLVDGRDMIIIRMPKDFPPFPQKLKFREPQREERICLVTANFQTKSMSSMVSDTSCTFPSGDGIFWKHWIQTKDGQCGSPLVSTRDGFIVGIHSASNFTNTNNYFTSVPKNFMELLTNQEAQQWVSGWRLNADSVLWGGHKVFMVKPEEPFQPVKEATQL [T115A], the “area with substrate ENLYFQC” value is 0.12, the “area with substrate ENLYFQD” value amounted to 0.0751, the “area with substrate ENLYFQF” value is 0.0766 and the “area with substrate ENLYFQI” value worked out at 0.0587. Moreover, the “area with substrate ENLYFQK” value is 0.0494, the “area with substrate ENLYFQM” value came to 0.0869, the “area with substrate ENLYFQR” value came out at 0.0615 and the “area with substrate ENLYFQS” value worked out at 0.0816. The “area with substrate ENLYFQW” value was 0.0516.

Regarding MGESLFKGPRDYNPISSSICHLTNESNGHTTSLYGIGFGPFIITNKHLFRRNNGTLVVQSLHGVFKVKDTTTLQQHLVDGRDMIIIRMPKDFPPFPQKLKFREPQREERICLVTTNFQTKSMSSMVSDTSCTFPSGDGIFWKHWIQTKDGQCGSPLVSTRDGFIVGIHSASNFTNTNNYFTSVPKNFMELLTNQEAQQWVSGWRLNADSVLWGGHKVFMVKPEEPFQPVKEATQL [D27N], the “area with substrate ENLYFQC” value amounted to 0.102, the “area with substrate ENLYFQI” value was 0.0539, the “area with substrate ENLYFQK” value is 0.0612 and the “area with substrate ENLYFQP” value was 0.0651. Moreover, the “area with substrate ENLYFQR” value is 0.0706, the “area with substrate ENLYFQS” value worked out at 0.0885, the “area with substrate ENLYFQT” value came out at 0.0534 and the “area with substrate ENLYFQY” value was 0.0715.

On to MGESLFKGPRDYNPISSSICHLTNESDGHTTSLYGIGFGPFIITNKHLFRRNNGTLVVQSLHGVFKVKDTTTLQQHLVDGRDMIIIRMPKDFPPFPQKLKFPEPQREERICLVTTNFQTKSMSSMVSDTSCTFPSGDGIFWKHWIQTKDGQCGSPLVSTRDGFIVGIHSASNFTNTNNYFTSVPKNFMELLTNQEAQQWVSGWRLNADSVLWGGHKVFMVKPEEPFQPVKEATQL [R102P], for which the “area with substrate ENLYFQC” value stood at 0.0593, the “area with substrate ENLYFQD” value worked out at 0.0423, the “area with substrate ENLYFQG” value was 0.0515 and the “area with substrate ENLYFQH” value worked out at 0.0624. The “area with substrate ENLYFQI” value was found to be 0.04, the “area with substrate ENLYFQL” value is 0.0496, the “area with substrate ENLYFQM” value came out at 0.0394 and the “area with substrate ENLYFQN” value amounted to 0.0437. The “area with substrate ENLYFQP” value worked out at 0.0429, the “area with substrate ENLYFQS” value was 0.0548, the “area with substrate ENLYFQV” value stood at 0.0448 and the “area with substrate ENLYFQY” value was determined as 0.0458.

For the variant MGESLFKGPRDYNPISSSICHLTNESDGHTTSLYGIGFGPFIITNKHLFRRNNGTLVVQSLHGVFKVKDTTTLQQHLVDGRDMDIIRMPKDFPPFPQKLKFREPQREERICLVTTNFQTKSMSSMVSDTSCTFPSGDGIFWKHWIQTKDGQCGSPLVSTRDGFIVGIHSASNFTNTNNYFTSVPKNFMELLTNQEAQQWVSGWRLNADSVLWGGHKVFMVKPEEPFQPVKEATQL [I84D], the “area with substrate ENLYFQC” value is 0.0575, the “area with substrate ENLYFQD” value is 0.03, the “area with substrate ENLYFQG” value worked out at 0.0445 and the “area with substrate ENLYFQH” value came to 0.0551. For the same variant, the “area with substrate ENLYFQK” value is 0.0842, the “area with substrate ENLYFQL” value amounted to 0.0575, the “area with substrate ENLYFQM” value amounted to 0.0475 and the “area with substrate ENLYFQN” value is 0.0416. Further, the “area with substrate ENLYFQP” value was 0.0449, the “area with substrate ENLYFQR” value was 0.0637, the “area with substrate ENLYFQS” value was found to be 0.0504 and the “area with substrate ENLYFQT” value came out at 0.0613. Moreover, the “area with substrate ENLYFQV” value amounted to 0.0478, the “area with substrate ENLYFQW” value is 0.0547 and the “area with substrate ENLYFQY” value is 0.0321.

As to MGESLFKGPRDYNPISSSICHLTNESDGHTTSLYGIGFGPFIITNKHLFRRNNGTLVVQSLHGVFKVKDTTTHQQHLVDGRDMIIIRMPKDFPPFPQKLKFREPQREERICLVTTNFQTKSMSSMVSDTSCTFPSGDGIFWKHWIQTKDGQCGSPLVSTRDGFIVGIHSASNFTNTNNYFTSVPKNFMELLTNQEAQQWVSGWRLNADSVLWGGHKVFMVKPEEPFQPVKEATQL [L73H], the “area with substrate ENLYFQC” value turned out to be 0.0588, the “area with substrate ENLYFQG” value came out at 0.0632, the “area with substrate ENLYFQI” value amounted to 0.0662 and the “area with substrate ENLYFQL” value was found to be 0.0521. The “area with substrate ENLYFQM” value came to 0.0649, the “area with substrate ENLYFQN” value was determined as 0.0681, the “area with substrate ENLYFQP” value is 0.0469 and the “area with substrate ENLYFQQ” value stood at 0.0355. Besides, the “area with substrate ENLYFQS” value came out at 0.0564, the “area with substrate ENLYFQT” value was 0.0448 and the “area with substrate ENLYFQV” value stood at 0.064.

For the variant MGESLFKGPRDYNPISSSICHLTNESDGHTTSLYGIGFGPFIITNKHLFRRNNGTLVVQSLHGVFKVKDTTTKQQHLVDGRDMIIIRMPKDFPPFPQKLKFREPQREERICLVTTNFQTKSMSSMVSDTSCTFPSGDGIFWKHWIQTKDGQCGSPLVSTRDGFIVGIHSASNFTNTNNYFTSVPKNFMELLTNQEAQQWVSGWRLNADSVLWGGHKVFMVKPEEPFQPVKEATQL [L73K], the “area with substrate ENLYFQC” value stood at 0.0534, the “area with substrate ENLYFQE” value amounted to 0.0565, the “area with substrate ENLYFQF” value was 0.046 and the “area with substrate ENLYFQI” value is 0.0715. Also, the “area with substrate ENLYFQL” value was 0.0462, the “area with substrate ENLYFQM” value is 0.0495, the “area with substrate ENLYFQP” value was found to be 0.0453 and the “area with substrate ENLYFQS” value came out at 0.0525. For the same variant, the “area with substrate ENLYFQW” value was determined as 0.049 and the “area with substrate ENLYFQY” value was 0.0558.

For the variant MGESLFKGPRDYNPISSSICHLTNESDGHTTSLYGIGFGPFIITNKHLFRRNNGTLVVQSLHGVFKVKDTTTLQQHLVDGRDMIIIRMPKDFPPFPQKLKFREPQRRERICLVTTNFQTKSMSSMVSDTSCTFPSGDGIFWKHWIQTKDGQCGSPLVSTRDGFIVGIHSASNFTNTNNYFTSVPKNFMELLTNQEAQQWVSGWRLNADSVLWGGHKVFMVKPEEPFQPVKEATQL [E107R], the “area with substrate ENLYFQC” value was determined as 0.177, the “area with substrate ENLYFQE” value was determined as 0.0735, the “area with substrate ENLYFQG” value was found to be 0.107 and the “area with substrate ENLYFQI” value was determined as 0.0409. Besides, the “area with substrate ENLYFQL” value came out at 0.0604, the “area with substrate ENLYFQM” value is 0.0221, the “area with substrate ENLYFQN” value amounted to 0.0711 and the “area with substrate ENLYFQS” value amounted to 0.111. Also, the “area with substrate ENLYFQT” value worked out at 0.0667, the “area with substrate ENLYFQW” value was found to be 0.069 and the “area with substrate ENLYFQY” value came to 0.0822.

With MGESLFKGPRDYNPISSSICHLTNESDGHTTSLYGIGFGPFIITNKHLFRRNNGTLVVQSLHGVFKVKDTTTLQQHLVDGRDMIIIRMPKDFPPFPQKLKFREPQREERICLVTTNFQTKSMSSMVSDTSCTFPSGDGIFWKHWIQTKDGQCGSPLVSTRDGFIVGIHSASNFTNTNNYFTSVPKNFMELLTNQEAQQWVSGWRLNADSVLWGGHKVFMVKPEEPFQPVKEATAL [Q234A], the “area with substrate ENLYFQC” value came out at 0.101, the “area with substrate ENLYFQD” value was 0.0611, the “area with substrate ENLYFQI” value came out at 0.0621 and the “area with substrate ENLYFQK” value worked out at 0.0642. Besides, the “area with substrate ENLYFQL” value was determined as 0.0607, the “area with substrate ENLYFQM” value was 0.0798, the “area with substrate ENLYFQP” value is 0.0641 and the “area with substrate ENLYFQR” value was 0.0453. In addition, the “area with substrate ENLYFQS” value was found to be 0.0979, the “area with substrate ENLYFQT” value turned out to be 0.0756, the “area with substrate ENLYFQV” value worked out at 0.0553 and the “area with substrate ENLYFQW” value came out at 0.0595. Further, the “area with substrate ENLYFQY” value was 0.0374.
